Data as given in PubChem BioAssay AID2675 (National Center for Advancing Translational Sciences (NCATS), 2010).
In all, about 280,000 compounds went through this assay and about 100 (0.036%) were called active. The inconclusive results got no clear call from the source; some entries with a clear call stand among them for comparison. Calls follow the shape of the dose curve; as a rule, active = well fitted inhibition curve with a large enough effect in the signal ratio, with a control signal flat (not every such curve was filed as active); inconclusive = small, poorly fitted or top-dose-only effect, or effect the other way, or a change in a side signal; inactive = no such curve, though single readings can be large or run the other way; the % refers to the signal ratio. A potency beside an inconclusive call is a rough fit, not a confirmed value. “Side channel” marks fits to a control or component signal instead of the main read-out.
% is scaled to controls: 0 for no effect and ±100 for the full control effect; potency is read from the fitted curve at half-maximal effect; tags tell the direction and shape of the fitted curve or compound fluorescence and quenching.

These molecules were tested against Muscleblind-like protein 1 (Homo sapiens) (UniProt Q9NR56) (assay: qHTS Assay for Inhibitors of MBNL1-poly(CUG) RNA binding). Settings: TR-FRET MBNL1-His/biotin-(CUG)12 binding, 665/545 ratio; activity change, negative = inhibition: at 57.5 µM (top of the series).
UniProt Q9NR56, sequence (Q9NR56 whole entry, looked up): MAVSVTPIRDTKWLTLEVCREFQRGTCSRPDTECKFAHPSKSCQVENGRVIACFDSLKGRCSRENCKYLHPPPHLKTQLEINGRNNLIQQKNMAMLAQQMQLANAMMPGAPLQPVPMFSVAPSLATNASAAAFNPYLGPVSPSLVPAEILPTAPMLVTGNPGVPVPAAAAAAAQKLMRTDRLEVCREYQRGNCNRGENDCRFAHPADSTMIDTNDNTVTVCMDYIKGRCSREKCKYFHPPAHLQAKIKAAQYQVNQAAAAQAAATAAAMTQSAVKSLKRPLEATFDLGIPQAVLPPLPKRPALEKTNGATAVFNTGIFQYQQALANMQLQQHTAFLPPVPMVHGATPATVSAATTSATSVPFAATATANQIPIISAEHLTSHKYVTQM
Outline: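 MBNL1-His + Biotin-(CUG)12, cpd titration 92 nM–58 uM; Tb anti-His Ab 0.055 ng/ul, SA-XL665 5 nM (final); 60 min RT; ratiometric 665/545 nm, Ex 340 nm; normalized to buffer and full-complex controls.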
With C=CCS(=O)(=O)c1nc2ccccc2s1 the “activity change, negative = inhibition” value was inactive: -20.2%.
In the case of O=C(c1cccc(S(=O)(=O)N2CCCC2)c1)c1nnc(-c2ccncc2)o1, the Potency is reported as inconclusive: 8.91 µM [quencher, side channel, partial curve].
With Cc1c(CCC(=O)N2CCC(C(=O)O)(c3ccccc3)CC2)c(=O)oc2cc3oc4c(c3cc12)CCCC4 the “activity change, negative = inhibition” value was inactive: 27.4%.
NS(=O)(=O)c1ccc(N/N=C/c2ccc(O)cc2O)c([N+](=O)[O-])c1 was tested, and the Potency was inconclusive: 3.55 µM [quencher, side channel, full curve].
In the case of CCOC(=O)c1cnc2c(C(F)(F)F)cccc2c1N1CCOCC1, the “activity change, negative = inhibition” value is reported as inactive: 11.1%.
CCCCN(CCCC)/C(N)=N/c1nc(C)cc(C)n1 was tested, and the “activity change, negative = inhibition” value was inactive: 1.11%.
For Cc1ccc(NC(=O)CN(C)S(=O)(=O)c2cccc3nsnc23)cc1Cl, the Potency was inconclusive: 7.94 µM [quencher, side channel, full curve].
With COc1ccc(-c2cnc3c(c2)CCC3(C#N)C#N)cc1 the “activity change, negative = inhibition” value was inactive: -1.76%.
In the case of Cc1ccc(C(=O)N/C(=C\c2cccs2)C(=O)NCCCn2ccnc2)cc1C, the “activity change, negative = inhibition” value is reported as inactive: 20.2%.
In the case of COc1ccc(OCC(=O)N/N=C(\C)CC(=O)Nc2ccc(OC)cc2[N+](=O)[O-])cc1, the Potency is reported as inconclusive: 17.8 µM [quencher, side channel, partial curve].
With Cc1ccc(Cl)c(NC(=S)N(CCCN2CCOCC2)Cc2ccco2)c1 the “activity change, negative = inhibition” value was inactive: -2.82%.
For Cn1nnnc1SCC(=O)Nc1ccccc1N1CCCCC1, the Potency was inconclusive: 39.8 µM [quencher, side channel, single point].
COc1ccc([N+](=O)[O-])cc1NC(=O)Cn1ccsc1=N was tested, and the Potency was inconclusive: 35.5 µM [quencher, side channel, partial curve].
Cc1ccc(Cn2c(=N)c(C(=O)NCC3CCCO3)cc3c(=O)n4ccccc4nc32)cc1 (stereo not given) was tested, and the Potency was inconclusive: 7.08 µM [quencher, side channel, partial curve].
With O=C(c1ccc2c(c1)OCO2)N1CCc2ccccc2C1 the “activity change, negative = inhibition” value was inactive: 11.7%.
For O=C1Nc2ccccc2/C1=N/c1sc2c(c1C(=O)NCCc1ccccc1)CCCC2, the Potency was inconclusive: 14.1 µM [quencher, side channel, partial curve].
For CCOC(=O)Cn1nc(-c2ccc(C)cc2)ccc1=O, the Potency was inconclusive: 39.8 µM [quencher, side channel, single point].
With Cc1nn(CCC(=O)NNC(=S)Nc2ccc([N+](=O)[O-])cc2)c(C)c1[N+](=O)[O-] the Potency was inconclusive: 39.8 µM [quencher, single point].
With Cn1c(SCC(=O)NCC2CCCO2)nnc1-c1c[nH]c2ccccc12 (stereo not given) the Potency was inconclusive: 5.62 µM [quencher, side channel, single point].
COc1ccc(CNC(=O)CCS(=O)(=O)c2cccc3nonc23)cc1 was tested, and the Potency was inconclusive: 11.2 µM [quencher, partial curve].
In the case of O=C(O)C1=C[C@@H](c2ccccc2)C[C@@H](OCc2ccc(CO)cc2)O1, the Potency is reported as inconclusive: 79.4 µM [inhibitor, single point].
For Cc1c(/C=N\NC(=O)c2ccc([N+](=O)[O-])cc2)cnn1C, the Potency was inconclusive: 3.16 µM [quencher, side channel, full curve, poor fit].
COc1c(Br)cc(Br)cc1/C=N/NC(=O)c1ccncc1 was tested, and the Potency was inconclusive: 31.6 µM [quencher, side channel, single point].
In the case of CCOC(=O)c1cc2ccc(OC)cc2oc1=O, the Potency is reported as inconclusive: 14.1 µM [quencher, side channel, partial curve].
For COc1ccc(NC(=S)Nc2cccc3ccccc23)cc1OC, the Potency was inconclusive: 14.1 µM [quencher, side channel, partial curve].
In the case of O=C(c1cc2cc(Br)cc(Br)c2oc1=O)N1CCOCC1, the Potency is reported as inconclusive: 17.8 µM [quencher, side channel, partial curve].
In the case of O=C(O)c1cc(-c2ccncc2)nc2ccc(S(=O)(=O)N3CCOCC3)cc12, the Potency is reported as inconclusive: 14.1 µM [quencher, side channel, partial curve].
For COC(=O)Cn1ncc2c3ccccc3n(C)c2c1=O, the “activity change, negative = inhibition” value was inactive: -5.31%.
In the case of S=C(Nc1ccc2nsnc2c1)NC1CCCCC1, the Potency is reported as inconclusive: 11.2 µM [activator, partial curve].
With Cc1cc(C)n(-c2nc3ccccc3[nH]c2=O)n1 the Potency was inconclusive: 39.8 µM [quencher, side channel, single point].
O=C(Nc1ccc(S(=O)(=O)N2CCOCC2)cc1)c1nn(-c2ccc(F)cc2)ccc1=O was tested, and the Potency was inconclusive: 7.08 µM [quencher, side channel, full curve].
In the case of O=C(Nc1ccc(Cl)cc1)c1ccc2nsnc2c1, the Potency is reported as inconclusive: 3.55 µM [quencher, side channel, full curve].
With CC(=O)Nc1ccc(S(=O)(=O)CCC#N)cc1 the Potency was inconclusive: 3.55 µM [fluorescent, side channel, full curve].
Cc1ccsc1C(=O)Nc1nnc(-c2ccco2)o1 was tested, and the Potency was inconclusive: 8.91 µM [quencher, side channel, single point].
Cc1cc(/C=C2/NC(=O)NC2=O)c(C)n1-c1ccc(N2CCOCC2)cc1 was tested, and the Potency was inconclusive: 12.6 µM [quencher, side channel, partial curve].
In the case of CCc1ccc(Oc2nc([N+](=O)[O-])nn2C)cc1, the Potency is reported as inconclusive: 12.6 µM [quencher, side channel, partial curve].
For CC(=O)Nc1ccc(N/C(C)=C/C(=O)c2cccnc2)cc1, the Potency was inconclusive: 15.8 µM [quencher, side channel, partial curve].
With Cn1c(=O)c2c(nc(N/N=C/c3cccs3)n2Cc2ccccc2)n(C)c1=O the Potency was inconclusive: 8.91 µM [quencher, side channel, single point].
With CC1=C(C#N)C(c2ccccc2)C2=C(N1)c1ccccc1C2=O (stereo not given) the Potency was inconclusive: 12.6 µM [quencher, partial curve].
COc1ccc(/C=N/NC(=O)c2cccc(Br)c2)cc1Cn1cc(Cl)cn1 was tested, and the “activity change, negative = inhibition” value was inactive: 9.32%.
